Experimental data published in publication PMC12820563, “FoxP3 forms a head-to-head dimer in vivo and stabilizes its multimerization on adjacent microsatellites”.
The list shows a part of the results.

Each sequence was assayed against T1, MBP-FoxP1dN (Mus musculus, UniProt P58462 326-579) (assay: PD-seq (MBP pull-down with sequencing); 20 mM Tris-HCl pH 7.5, 100 mM NaCl, 1.5 mM MgCl2, 0.4 uM protein, 0.1 uM dsDNA library, 30 min, room temperature, amylose pull-down; high values mean tight binding). Conditions: protein: recombinant; tags: His6-MBP; chain copies: 2; dsDNA, one strand shown.
T1 sequence: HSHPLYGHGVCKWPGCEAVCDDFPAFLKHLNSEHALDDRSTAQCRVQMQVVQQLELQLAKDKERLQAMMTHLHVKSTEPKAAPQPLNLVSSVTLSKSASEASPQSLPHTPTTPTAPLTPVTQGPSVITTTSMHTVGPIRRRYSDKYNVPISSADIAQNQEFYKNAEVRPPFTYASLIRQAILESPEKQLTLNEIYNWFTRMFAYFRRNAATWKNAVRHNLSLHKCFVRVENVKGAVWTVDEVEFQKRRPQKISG
Method in brief: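 Amylose resin was used to capture complexes formed during 30 min at room temperature in Tris pH 7.5 buffer with NaCl and MgCl2 between 0.4 µM His6-MBP-tagged mouse FoxP3 or FoxP1 fragment lacking the N-terminus, expressed in E. coli, and 0.1 µM Klenow-filled double-stranded degenerate DNA library. After three washes, the DNA was released with proteinase K, barcoded by PCR and sequenced on Illumina. Binding is pooled-replicate reads-per-million enrichment, pull-down over input.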
For “GATGATTGTTCTCCCAGCTGATGAATTCTAGGCTTCGAGTAAACAAATTTTCCTAATCTTTCTGTTCAAGCGCCATCTAC”, the binding signal was 0.817 RPM ratio (pull-down/input). For “GATGATTGTTCTCCCAGCTGATGAATTCCCTTATTCGAGTAAACAAATTTTCCTAATCTTTCTGTTCAAGCGCCATCTAC”, the binding signal was 0.881 RPM ratio (pull-down/input). “GATGATTGTTCTCCCAGCTGATGAATTCTCAGATTCGAGTAAACAAATTTTCCTAATCTTTCTGTTCAAGCGCCATCTAC” was tested, and the binding signal was 0.815 RPM ratio (pull-down/input). With “GATGATTGTTCTCCCAGCTGATGAATTGGGACGGTCGAGTAAACAAATTTTCCTAATCTTTCTGTTCAAGCGCCATCTAC” the binding signal was 0.812 RPM ratio (pull-down/input). For “GATGATTGTTCTCCCAGCTGATGAATTGCACTTATCGAGTAAACAAATTTTCCTAATCTTTCTGTTCAAGCGCCATCTAC”, the binding signal was 1.29 RPM ratio (pull-down/input). In the case of “GATGATTGTTCTCCCAGCTGATGAATTAAATAATTCGAGTAAACAAATTTTCCTAATCTTTCTGTTCAAGCGCCATCTAC”, the binding signal is reported as 1.3 RPM ratio (pull-down/input). For “GATGATTGTTCTCCCAGCTGATGAATTACCATAATCGAGTAAACAAATTTTCCTAATCTTTCTGTTCAAGCGCCATCTAC”, the binding signal was 1.42 RPM ratio (pull-down/input). For “GATGATTGTTCTCCCAGCTGATGAATTGGTGGTATCGAGTAAACAAATTTTCCTAATCTTTCTGTTCAAGCGCCATCTAC”, the binding signal was 1.03 RPM ratio (pull-down/input). In the case of “GATGATTGTTCTCCCAGCTGATGAATTGCTCCTGTCGAGTAAACAAATTTTCCTAATCTTTCTGTTCAAGCGCCATCTAC”, the binding signal is reported as 0.929 RPM ratio (pull-down/input). With “GATGATTGTTCTCCCAGCTGATGAATTCGCTCCGTCGAGTAAACAAATTTTCCTAATCTTTCTGTTCAAGCGCCATCTAC” the binding signal was 0.904 RPM ratio (pull-down/input). With “GATGATTGTTCTCCCAGCTGATGAATTACTCTTATCGAGTAAACAAATTTTCCTAATCTTTCTGTTCAAGCGCCATCTAC” the binding signal was 1.1 RPM ratio (pull-down/input). For “GATGATTGTTCTCCCAGCTGATGAATTGTACGAATCGAGTAAACAAATTTTCCTAATCTTTCTGTTCAAGCGCCATCTAC”, the binding signal was 1.02 RPM ratio (pull-down/input). For “GATGATTGTTCTCCCAGCTGATGAATTCTTGGCATCGAGTAAACAAATTTTCCTAATCTTTCTGTTCAAGCGCCATCTAC”, the binding signal was 1.03 RPM ratio (pull-down/input). In the case of “GATGATTGTTCTCCCAGCTGATGAATTACCCACTTCGAGTAAACAAATTTTCCTAATCTTTCTGTTCAAGCGCCATCTAC”, the binding signal is reported as 0.978 RPM ratio (pull-down/input). For “GATGATTGTTCTCCCAGCTGATGAATTGAACCACTCGAGTAAACAAATTTTCCTAATCTTTCTGTTCAAGCGCCATCTAC”, the binding signal was 0.821 RPM ratio (pull-down/input). For “GATGATTGTTCTCCCAGCTGATGAATTATGACGTTCGAGTAAACAAATTTTCCTAATCTTTCTGTTCAAGCGCCATCTAC”, the binding signal was 1.02 RPM ratio (pull-down/input). In the case of “GATGATTGTTCTCCCAGCTGATGAATTGTGCTGATCGAGTAAACAAATTTTCCTAATCTTTCTGTTCAAGCGCCATCTAC”, the binding signal is reported as 1.18 RPM ratio (pull-down/input). In the case of “GATGATTGTTCTCCCAGCTGATGAATTCATGCTATCGAGTAAACAAATTTTCCTAATCTTTCTGTTCAAGCGCCATCTAC”, the binding signal is reported as 1 RPM ratio (pull-down/input). For “GATGATTGTTCTCCCAGCTGATGAATTCTAGCCATCGAGTAAACAAATTTTCCTAATCTTTCTGTTCAAGCGCCATCTAC”, the binding signal was 0.949 RPM ratio (pull-down/input). In the case of “GATGATTGTTCTCCCAGCTGATGAATTGCACACCTCGAGTAAACAAATTTTCCTAATCTTTCTGTTCAAGCGCCATCTAC”, the binding signal is reported as 1.13 RPM ratio (pull-down/input). In the case of “GATGATTGTTCTCCCAGCTGATGAATTAATCCAATCGAGTAAACAAATTTTCCTAATCTTTCTGTTCAAGCGCCATCTAC”, the binding signal is reported as 1.06 RPM ratio (pull-down/input). “GATGATTGTTCTCCCAGCTGATGAATTGATTCCGTCGAGTAAACAAATTTTCCTAATCTTTCTGTTCAAGCGCCATCTAC” was tested, and the binding signal was 0.955 RPM ratio (pull-down/input). In the case of “GATGATTGTTCTCCCAGCTGATGAATTCCATGGATCGAGTAAACAAATTTTCCTAATCTTTCTGTTCAAGCGCCATCTAC”, the binding signal is reported as 0.841 RPM ratio (pull-down/input). For “GATGATTGTTCTCCCAGCTGATGAATTTTTGACGTCGAGTAAACAAATTTTCCTAATCTTTCTGTTCAAGCGCCATCTAC”, the binding signal was 0.91 RPM ratio (pull-down/input). “GATGATTGTTCTCCCAGCTGATGAATTATCTGATTCGAGTAAACAAATTTTCCTAATCTTTCTGTTCAAGCGCCATCTAC” was tested, and the binding signal was 0.984 RPM ratio (pull-down/input). “GATGATTGTTCTCCCAGCTGATGAATTATCCGCTTCGAGTAAACAAATTTTCCTAATCTTTCTGTTCAAGCGCCATCTAC” was tested, and the binding signal was 0.911 RPM ratio (pull-down/input). For “GATGATTGTTCTCCCAGCTGATGAATTGATTTATTCGAGTAAACAAATTTTCCTAATCTTTCTGTTCAAGCGCCATCTAC”, the binding signal was 1.27 RPM ratio (pull-down/input). In the case of “GATGATTGTTCTCCCAGCTGATGAATTTGCTTCATCGAGTAAACAAATTTTCCTAATCTTTCTGTTCAAGCGCCATCTAC”, the binding signal is reported as 1.11 RPM ratio (pull-down/input). With “GATGATTGTTCTCCCAGCTGATGAATTTAGATGTTCGAGTAAACAAATTTTCCTAATCTTTCTGTTCAAGCGCCATCTAC” the binding signal was 1.19 RPM ratio (pull-down/input). With “GATGATTGTTCTCCCAGCTGATGAATTGGGATTTTCGAGTAAACAAATTTTCCTAATCTTTCTGTTCAAGCGCCATCTAC” the binding signal was 1.01 RPM ratio (pull-down/input). In the case of “GATGATTGTTCTCCCAGCTGATGAATTTGGCTATTCGAGTAAACAAATTTTCCTAATCTTTCTGTTCAAGCGCCATCTAC”, the binding signal is reported as 0.942 RPM ratio (pull-down/input). “GATGATTGTTCTCCCAGCTGATGAATTACAAACTTCGAGTAAACAAATTTTCCTAATCTTTCTGTTCAAGCGCCATCTAC” was tested, and the binding signal was 1.43 RPM ratio (pull-down/input).
